{"source": "PubChem BioAssay AID1963318", "about": "(National Center for Advancing Translational Sciences (NCATS), 2024)", "note": "The whole screen tested about 1,300 compounds, of which about 100 (7.7%) were called active. The inconclusive results got no clear call from the source; some entries with a clear call stand among them for comparison. Calls follow the shape of the dose curve; as a rule, active = well fitted activation curve with a large enough effect; inconclusive = small, poorly fitted or top-dose-only effect; inactive = no such curve, though single readings can be large or run the other way. Potencies of inconclusive entries are doubtful fits and often do not repeat. Potency is read from the fitted curve at half-maximal effect; tags tell the direction and shape of the fitted curve."}
{"target": "Luciferin 4-monooxygenase (Photinus pyralis) (UniProt P08659)", "sequence (P08659 whole entry, looked up)": "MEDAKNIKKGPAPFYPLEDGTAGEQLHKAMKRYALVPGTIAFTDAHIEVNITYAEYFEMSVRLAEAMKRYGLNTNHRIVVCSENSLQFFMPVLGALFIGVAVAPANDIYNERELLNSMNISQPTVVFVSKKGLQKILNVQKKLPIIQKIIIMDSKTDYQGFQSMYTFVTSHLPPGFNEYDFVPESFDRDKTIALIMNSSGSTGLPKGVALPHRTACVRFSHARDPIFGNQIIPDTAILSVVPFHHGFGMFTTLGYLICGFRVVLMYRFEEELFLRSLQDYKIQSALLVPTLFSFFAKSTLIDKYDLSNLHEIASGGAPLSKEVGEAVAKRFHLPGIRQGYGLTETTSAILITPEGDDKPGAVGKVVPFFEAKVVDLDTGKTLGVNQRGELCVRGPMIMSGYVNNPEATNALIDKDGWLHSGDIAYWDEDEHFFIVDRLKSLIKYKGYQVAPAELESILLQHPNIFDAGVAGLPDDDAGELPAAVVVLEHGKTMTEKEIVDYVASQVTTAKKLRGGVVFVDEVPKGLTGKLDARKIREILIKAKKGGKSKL", "assay": "Firefly luciferase (FLuc-C-HiBiT) SDR gain of signal screen - without ATP; also: nearly all actives have a fitted effect of over 55% in size", "settings": "Purified FLuc-C-HiBiT, Nano-Glo HiBiT luminescence, no ATP; series mostly up to 32.7 µM", "summary_of_the_method": "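Luminescence gain-of-signal read by CCD imager, 1 s exposure, 5-10 min after Nano-Glo HiBiT detection reagent. Beforehand, 10 nM FLuc-C-HiBiT in ATP-free buffer sat with compounds >30 min at RT, light-protected.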"}
{"smiles": "Cc1ccc(-c2cc(C(=O)N3CCC(Cc4nncn4CC4CC4)CC3)c3ccccc3n2)cc1C", "Potency": "active: 12.4 µM"}
{"smiles": "CCN(CC)C(=O)N1CCOC(c2ccc3cc(OC)ccc3c2)C1", "note": "(centres undefined)", "Potency": "inactive"}
{"smiles": "Cc1ccc(NC(=O)Nc2ccc(C)n(CC(=O)N3CCC(C)CC3)c2=O)cc1", "Potency": "inconclusive: 12.4 µM [activator, partial curve]"}
{"smiles": "CC(C)Cc1noc(-c2ccc(N3CCC(O)CC3)nc2)n1", "Potency": "inactive"}
{"smiles": "Cc1cnc(CCNC(=O)Nc2ccc3c(c2)OCCO3)n1Cc1ccc(F)cc1", "Potency": "inactive"}
{"smiles": "COc1ccc(-c2cc3c(cn2)CN(Cc2cccnc2)CCN3)cc1F", "Potency": "inconclusive: 18 µM [activator, partial curve, poor fit]"}
{"smiles": "O=C(Nc1ccc2c(c1)OCCO2)C1CN(S(=O)(=O)C2CC2)CC12CCCCC2", "note": "(centres undefined)", "Potency": "inconclusive: 15.7 µM [activator, partial curve]"}
{"smiles": "CC(C)n1cc(-c2cc(C(=O)N3CCC(C)(C)C3)c3ccc(F)cc3n2)cn1", "Potency": "inconclusive: 11.1 µM [activator, partial curve]"}
{"smiles": "CCCN1C(=O)c2ccc(-c3nc4ccccc4s3)cc2C1=O", "Potency": "inconclusive: 1.97 µM [activator, full curve, poor fit]"}
{"smiles": "C#CCn1c(/C=C/c2ccc(Cl)cc2)nc2ccccc21", "Potency": "active: 3.94 µM"}
{"smiles": "Fc1ccc(-c2cn3cc(Cc4ccccc4Cl)sc3n2)cc1", "Potency": "inconclusive: 4.42 µM [activator, partial curve]"}
{"smiles": "CCn1c(=O)c(C(=O)Nc2ccc(C(C)=O)cc2)nc2ccccc21", "Potency": "inconclusive: 14 µM [activator, partial curve, poor fit]"}
{"smiles": "CSc1cccc(NC(=O)Nc2cccc(-c3ccc(N4CCOCC4)nn3)c2)c1", "Potency": "inconclusive: 8.81 µM [activator, partial curve]"}
{"smiles": "Cc1ccc(NC(=O)Nc2ccc(C)n(CC(=O)NCCN3CCCC3)c2=O)cc1", "Potency": "inconclusive: 17.6 µM [activator, partial curve, poor fit]"}
{"smiles": "O=C(O)c1cccc(-c2noc(-c3cccc(F)c3)n2)c1", "Potency": "inconclusive: 11.1 µM [activator, partial curve]"}
{"smiles": "Cc1ccccc1CCNC(=O)c1ccc2c(c1)nc1n2CCOC1", "Potency": "active: 12.4 µM"}
{"smiles": "Cc1ccc(-c2cc3c(=O)n(CCNC(=O)c4nn(C)c5ccccc45)ccn3n2)c(C)c1", "Potency": "inconclusive: 11.1 µM [activator, partial curve]"}
{"smiles": "COc1ccc(NC(=O)N2CCc3c(C(=O)N(C)C)cccc32)cc1", "Potency": "inconclusive: 12.4 µM [activator, partial curve]"}
{"smiles": "O=C(NCc1ccco1)c1cccc2c1CCN2C(=O)Nc1ccc(F)cc1", "Potency": "inconclusive: 11.1 µM [activator, partial curve]"}
{"smiles": "CCC(=O)Nc1cc2nn(-c3ccc(C)cc3)nc2cc1C", "Potency": "inconclusive: 1.4 µM [activator, full curve]"}
{"smiles": "CC1CCCN(c2ncnc3c2cnn3-c2ccccc2)C1", "note": "(centres undefined)", "Potency": "active: 2.48 µM"}
{"smiles": "CCC(=O)NCCC1CCN(C(=O)Nc2ccc(C)c(F)c2)CC1", "Potency": "inconclusive: 14 µM [activator, partial curve]"}
{"smiles": "COc1cccc(C(=O)Nc2ccc(-c3nc4ccccc4s3)cc2Cl)c1", "Potency": "inactive"}
{"smiles": "COc1ccc(-c2ncc3c(n2)OCCN(C)C3=O)cc1F", "Potency": "inconclusive: 25.5 µM [activator, partial curve, poor fit]"}
{"smiles": "CN1CCOc2nc(-c3ccc(Oc4ccccc4)cc3)ncc2C1=O", "Potency": "inactive"}
{"smiles": "Cc1ccc(NC(=O)Nc2cccn3nc(C)nc23)cc1", "Potency": "inconclusive: 19.7 µM [activator, partial curve, poor fit]"}
{"smiles": "Cc1ccc2nc(-c3ccc(NC(=O)COc4ccc(Br)cc4Br)cc3)sc2c1", "Potency": "inconclusive: 6.24 µM [activator, partial curve, poor fit]"}
{"smiles": "CCc1ccc(-n2nc(CO)c(C(=O)NC)n2)cc1", "Potency": "inconclusive: 15.7 µM [activator, partial curve, poor fit]"}
{"smiles": "Cc1ccc(-n2nc(C)c([C@H]3C=C[C@@H](OC(=O)Nc4cccc(C(F)(F)F)c4)C3)c2C)cc1Cl", "Potency": "inactive"}
{"smiles": "C[C@@H]1CN(c2nc(-c3ccccc3)no2)CC[C@@]1(O)C1CCC1", "Potency": "inconclusive: 12.4 µM [activator, partial curve]"}
{"smiles": "O=C(c1ccncc1)N1CCC(Oc2ccc(-c3noc(-c4ccccc4)n3)cc2)C1", "note": "(centres undefined)", "Potency": "inactive"}
{"smiles": "COc1ccc(-c2cc3c(=O)n(CCNC(=O)c4ccco4)ccn3n2)cc1", "Potency": "inconclusive: 12.4 µM [activator, partial curve, poor fit]"}
{"smiles": "Cc1[nH]nc2c1C(c1ccc(Cl)cc1)C(C#N)=C(N)O2", "note": "(centres undefined)", "Potency": "inactive"}
{"smiles": "COc1ccc(C(=O)NCCn2cccc2-c2nc(-c3ccccc3)no2)cc1", "Potency": "inconclusive: 7.85 µM [activator, partial curve, poor fit]"}
{"smiles": "COc1ccccc1NC(=O)Nc1cccc(-c2ccc(N3CCOCC3)nn2)c1", "Potency": "inconclusive: 12.4 µM [activator, partial curve]"}
{"smiles": "CC(=O)Nc1ccc(NC(=O)c2cc(-c3ccc4c(c3)OCCO4)on2)cc1", "Potency": "inconclusive: 3.94 µM [activator, partial curve]"}
{"smiles": "CSc1ccc(/C=C/c2nc3ccccc3n2S(=O)(=O)c2cccc(Cl)c2)cc1", "Potency": "active: 1.97 µM"}
{"smiles": "O=C(Nc1cccc(-c2ccc(N3CCCC3)nn2)c1)c1c(F)cccc1F", "Potency": "inconclusive: 12.4 µM [activator, partial curve, poor fit]"}
{"smiles": "COc1cccc(CC(=O)Nc2ccc(-c3nc4ccccc4s3)cc2)c1", "Potency": "inactive"}
{"smiles": "COc1ccc(OCC(=O)Nc2cc(-c3nc4ccccc4s3)ccc2C)cc1", "Potency": "inactive"}
{"smiles": "CCN1CCN(C(=O)Cn2c(C)ccc(NC(=O)Nc3ccc(C)cc3)c2=O)CC1", "Potency": "inconclusive: 11.1 µM [activator, partial curve]"}
{"smiles": "Cn1c(C(=O)Nc2ccc3c(c2)OCO3)cc2c1CCN(Cc1cccc(F)c1)C2", "Potency": "inactive"}
{"smiles": "CCc1nc(-c2ccc(OC3CCN(C(=O)C4CC4)C3)cc2)no1", "note": "(centres undefined)", "Potency": "inactive"}
{"smiles": "Cc1ccc(NC(=O)N2CCC(CCNC(=O)C3CC3)CC2)cc1F", "Potency": "inconclusive: 14 µM [activator, partial curve]"}
{"smiles": "O=C(O)c1cccc(-c2noc(-c3cccc(C(F)(F)F)c3)n2)c1", "Potency": "inconclusive: 12.4 µM [activator, partial curve]"}
{"smiles": "C[C@H](C(=O)N1CCCC1)C1CC[C@@]2(C)Cc3sc(-c4ccccc4)nc3[C@@H](C)[C@@H]2[C@H]1O", "note": "(some centres undefined)", "Potency": "active: 3.13 µM"}
{"smiles": "COc1ccc(NC(=O)Nc2ccc(C)n(CC(=O)N3CCCCCC3)c2=O)cc1", "Potency": "inconclusive: 14 µM [activator, partial curve]"}
{"smiles": "CC(C)C(=O)Nc1cc(-c2nc3ccccc3s2)ccc1Cl", "Potency": "inactive"}
{"smiles": "COc1ccc(-c2cc3c(=O)n(CCNC(=O)c4c(F)cccc4F)ccn3n2)cc1", "Potency": "inconclusive: 11.1 µM [activator, partial curve]"}
{"smiles": "COc1ccc(/C=C/c2ccc3c(c2)C(=O)N2CC[C@H](NC(=O)COCC(=O)O)[C@H]2C(=O)N3)cc1", "Potency": "inconclusive: 15.7 µM [activator, partial curve]"}
{"smiles": "Cc1ccc(OCC(=O)Nc2cccc(C(=O)OCc3cc(=O)n4nc(C)sc4n3)c2)cc1", "Potency": "inactive"}
{"smiles": "Clc1ccc(OCc2nc3ccccc3n2Cc2ccccc2)c(Cl)c1", "Potency": "inactive"}
{"smiles": "CCNC(=O)N[C@@H]1C=C[C@@H](c2c(C)nn(-c3ccc(C(C)C)cc3)c2C)C1", "Potency": "inconclusive: 25.5 µM [activator, partial curve, poor fit]"}
{"smiles": "O=C(NCc1ccco1)Nc1cccc(-c2ccc(N3CCCC3)nn2)c1", "Potency": "inconclusive: 12.4 µM [activator, partial curve, poor fit]"}
{"smiles": "O=C1c2cnc(-c3ccccc3)nc2OCCN1CC1CC1", "Potency": "inconclusive: 20.2 µM [activator, partial curve, poor fit]"}
{"smiles": "Cc1ccc(-n2ncc3c(N(C)C)ncnc32)cc1Cl", "Potency": "inconclusive: 12.4 µM [activator, partial curve, poor fit]"}
{"smiles": "COc1ccc(NC(=O)Nc2ccc(C)n(CC(=O)N3CCCC(C)C3)c2=O)cc1", "note": "(centres undefined)", "Potency": "inconclusive: 14 µM [activator, partial curve]"}
{"smiles": "Oc1cc(-c2nc3ccccc3s2)cc2c1OCCN(Cc1cccn1-c1ncccn1)C2", "Potency": "inactive"}
{"smiles": "COc1ccc(C)cc1NC(=O)Nc1cccc(-c2ccc(N3CCCCC3)nn2)c1", "Potency": "active: 8.81 µM"}
{"smiles": "COc1ccc(NC(=O)Nc2ccc(C)n(CC(=O)NCC(C)C)c2=O)cc1", "Potency": "active: 7.85 µM"}
{"smiles": "Cc1cn2nc(C(=O)NCCc3ccccc3)cc2c(=O)[nH]1", "Potency": "inconclusive: 19.7 µM [activator, partial curve, poor fit]"}
{"smiles": "CN(Cc1ccccc1)C(=O)c1cccc2c1CCN2C(=O)Nc1ccccc1", "Potency": "inactive"}
{"smiles": "O=C(O)c1ccc(-c2ccc(N3CCCCCC3)nc2)cc1", "Potency": "inconclusive: 15.7 µM [activator, partial curve, poor fit]"}
{"smiles": "Cc1ccc(NC(=O)CCc2c(C)nc3cc(-c4ccccc4)nn3c2C)cc1F", "Potency": "inactive"}
{"smiles": "O=C(NCCc1ccccc1Cl)c1ccc2c(c1)nc1n2CCCCC1", "Potency": "active: 3.94 µM"}
{"smiles": "OC1CCCN(c2ccc(-c3nc(-c4cccc(C(F)(F)F)c4)no3)cn2)C1", "note": "(centres undefined)", "Potency": "inactive"}
{"smiles": "COc1cc(NC(=O)Nc2cccc(-c3ccc(N4CCOCC4)nn3)c2)cc(OC)c1", "Potency": "inconclusive: 11.1 µM [activator, partial curve]"}
{"smiles": "Cc1cccc(CCNC(=O)c2sc3nc4n(c(=O)c3c2C)CCCC4)c1", "Potency": "inactive"}
{"smiles": "CN1CCN(c2ccc(-c3cc4c(ccn4C)c(C(=O)NCCc4ccccn4)n3)cc2)CC1", "Potency": "inconclusive: 1.76 µM [activator, partial curve]"}
